{
  "source": "paper PMC11545984",
  "about": "“1,3-Dipolar Cycloaddition of Nitrile Oxides and Nitrilimines to (−)-β-Caryophyllene: Stereoselective Synthesis of Polycyclic Derivatives and Their Biological Testing” (International Journal of Molecular Sciences, 2024)",
  "target": "viral neuraminidase (NA) (Influenza A virus, UniProt P03468)",
  "sequence (P03468 whole entry, looked up)": "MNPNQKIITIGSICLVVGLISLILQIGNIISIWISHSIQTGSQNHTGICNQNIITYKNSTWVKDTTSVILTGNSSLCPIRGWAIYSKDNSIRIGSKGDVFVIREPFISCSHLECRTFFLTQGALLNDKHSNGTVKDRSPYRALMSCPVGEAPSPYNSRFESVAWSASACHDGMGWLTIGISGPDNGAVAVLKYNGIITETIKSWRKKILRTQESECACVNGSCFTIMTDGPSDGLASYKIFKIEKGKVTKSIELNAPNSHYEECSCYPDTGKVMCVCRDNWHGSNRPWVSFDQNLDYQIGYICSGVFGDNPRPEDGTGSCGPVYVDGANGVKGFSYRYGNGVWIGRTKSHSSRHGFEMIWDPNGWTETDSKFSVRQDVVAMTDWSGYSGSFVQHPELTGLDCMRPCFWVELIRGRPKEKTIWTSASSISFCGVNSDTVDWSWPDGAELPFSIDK",
  "assay": "Cell-free anti-neuraminidase assay, influenza A",
  "assay_type": "biochemical, influenza virus A/Puerto Rico/8/34 (H1N1)",
  "data": [
    {"smiles": "CC1(C)C[C@H]2[C@H]1CC[C@]1(C)ON=C(c3ccc(Cl)cc3)[C@H]1CC[C@@]21CC(c2ccc(Cl)cc2)=NO1", "note": "[Compound 25, (3aR,6R,6aS,8aR,10aS)-3,3′-Bis(4-chlorophenyl)-8,8,10a-trimethyl-3a,4,5,6a,7,8,8a,9,10,10a-decahydro-4′H-spiro[cyclobuta [5,6]cyclonona [1,2-d]isoxazole-6,5′-isoxazole]]", "values": [
      {"measurement": "IC50", "value": 35.8, "unit": "µM"}
    ]}
  ]
}
